# Assay results: PMC6212790
# Some of the results follow. At the low end of the ranking the order means little.
# Molecular target: T1, GST-Rok (full length) (UniProt O34857)
# T1 sequence: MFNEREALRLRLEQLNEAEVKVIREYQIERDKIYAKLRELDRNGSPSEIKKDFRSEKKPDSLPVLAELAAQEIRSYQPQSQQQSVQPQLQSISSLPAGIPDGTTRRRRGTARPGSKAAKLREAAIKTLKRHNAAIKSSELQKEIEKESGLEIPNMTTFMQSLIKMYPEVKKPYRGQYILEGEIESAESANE
# Test: protein binding microarray;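 also: rank score from −0.5 (least bound) to 0.5 (best bound)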
# Conditions: Rok is a gene silencer of Bacillus subtilis; high values mean tight binding; most listed sequences are background and not binding sites; double strand, one strand shown
row,Sequence,binding signal [E-score]
1,CGCAACTC,-0.103
2,ACGGACAA,-0.0785
3,CGGCGAAC,0.0581
4,AATAAAGC,0.0306
5,GCTGTTAA,0.000796
6,CTCAGATC,-0.087
7,GGTTGCAC,-0.126
8,ACCGAACA,-0.174
9,CAGTAGTC,-0.166
10,ATCAACAT,0.0335
11,AACATGCC,-0.0433
12,CAGTGACG,-0.119
13,ACTGACTG,-0.161
14,CTATATCA,0.231
15,CGTCGTCA,-0.141
16,CTTGACTC,-0.325
17,GCCTGTCA,-0.156
18,ACTCACGA,-0.0539
19,CATGTAAC,0.145
20,AATTCAAA,0.0223
21,CACTTGGC,-0.0702
22,ATAGGTCG,0.164
23,GGTGTAGA,0.196
24,AGCTACCC,-0.139

row,Sequence,binding signal [E-score]
1,AAAACCCA,0.0227
2,CAACTAAC,0.21
3,ACATTTCT,0.31
4,GAATGATC,-0.161
5,GACGCCAA,-0.212
6,ACTACGTG,-0.0152
7,CAAGCTAG,0.201
8,CGACCGAG,-0.237
9,GACTCGGA,-0.0776
10,AGCGCCCG,-0.274
11,TCCCGAGA,-0.101
12,ATAGCATG,0.154
13,AAGTAAAT,0.303
14,ATGATGGC,-0.0543
15,ACGGGCTA,-0.0217
16,CCGTTGTC,-0.0545
17,AGACCCTG,-0.348
18,ACTCGGGA,-0.117
19,AAGCGGTC,-0.348
20,CGGCATGA,-0.101
21,AGTCGACG,-0.0968
22,GCTCCGCC,-0.368
23,ACGTTCTG,0.0265
24,ATGGAGTC,0.045

row,Sequence,binding signal [E-score]
1,CTTACAAG,-0.114
2,TCAGCCGA,-0.0625
3,CTGCCTGA,-0.0653
4,GCAGGCAC,-0.205
5,TCATCGCA,0.0709
6,AAATTGGA,0.126
7,ATTGGTGC,0.0963
8,AACATAGG,0.0767
9,TCACTACA,0.0227
10,ACTTAGAC,-0.215
11,TAACGGGA,0.0692
12,CACCGTGA,-0.145
13,GAAACGGA,-0.132
14,CGAAGCAA,-0.114
15,CTGAATAA,0.213
16,CGACCTCA,-0.296
17,ACCTCCCT,-0.354
18,ACCTCCCA,-0.188
19,AGGGGCGC,-0.258
20,CCAAGATC,-0.0111
21,TCACATAA,0.156
22,GGATTGCA,0.0499
23,ATGCAGGA,0.0987
24,GTATCGCA,0.0843

row,Sequence,binding signal [E-score]
1,TGATGGAA,0.0673
2,CGGCACGC,-0.112
3,CCTTCCCA,-0.344
4,AGAGATCT,0.012
5,CAATACCA,0.139
6,ACCGGGAA,-0.258
7,ACCGCCGG,-0.178
8,GGAACGCC,-0.321
9,TCCTGGCA,-0.0252
10,CAGAGTTC,-0.0177
11,GGGCGTAA,-0.158
12,ATTTGGCC,-0.00123
13,CCAAACGC,-0.138
14,TCCAGAAA,-0.00865
15,CGCCATTC,-0.0796
16,TAATGCCA,-0.00233
17,CAACGGCA,-0.0596
18,ATAGCAGC,-0.00314
19,TAATAAAA,0.264
20,CGACCCGC,-0.315
21,GCCTGTCC,-0.196
22,AAACTCGA,-0.101
